Data on 30 compounds can be found in the supplement of paper PMC9135407.

Where “and” joins values, the source holds several entries; their conditions need not be identical. Equal values may be shown once. Where a name gives a salt, the structure may show the parent alone. Among all 5,800 compounds or so, about 620 (11%) showed activity.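 How the source made its calls: active = score above a cut-off or among the top three wells of a plate; in these data no inactive exceeds 0.85.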 Only a part is listed here, and it is no random draw.

The subject of the experiment is primary human hepatic stellate cells (donor 1). As to the kind of experiment: scaled lipid accumulation score (0 = DMSO-like, 1 = nortriptyline-like); higher = stronger HSC inactivation (lipid re-accumulation), active = hit call of the paper. The conditions noted are these: 48 h.
Where [1] appears, read: library stock concentration: 3.33 mM.
Where [2] appears, read: library stock concentration: 10 mM.
Setting [3] is: library stock concentration: 80 uM.
Setting [4] is: library stock concentration: 400 uM.
The mark [5] stands for this setting: library stock concentration: 2 mM.

On to `CCC(=O)O[C@]1(C(=O)CCl)[C@@H](C)C[C@H]2[C@@H]3CCC4=CC(=O)C=C[C@]4(C)[C@@]3(F)[C@@H](O)C[C@@]21C` [Clobetasol propionate], for which the “scaled lipid accumulation score” value was inactive: 0.041. In addition, the “scaled lipid accumulation score” value under setting [1] was inactive: ≤ 0. The “scaled lipid accumulation score” value under setting [2] is inactive: ≤ 0 and inactive: 0.129.

Take `O=C1C[C@@H](c2ccc(O)cc2)Oc2cc(O)cc(O)c21` [Naringenine]: the “scaled lipid accumulation score” value is inactive: ≤ 0.

On to `O=C1C[C@@H](c2ccc(O)cc2)Oc2cc(O)cc(O)c21` [Naringenin], for which the “scaled lipid accumulation score” value under setting [1] is inactive: ≤ 0 and the “scaled lipid accumulation score” value under setting [2] is inactive: ≤ 0.

For `NC(=O)c1ccc([N+](=O)[O-])cc1Cl` [Aklomide], under setting [2], the “scaled lipid accumulation score” value was inactive: 0.07.

For the compound `O=C1OCCN1/N=C/c1ccc([N+](=O)[O-])o1` [Furazolidone], the “scaled lipid accumulation score” value is inactive: ≤ 0. In addition, the “scaled lipid accumulation score” value (library stock concentration: 8.9 mM) was inactive: ≤ -0.001. The “scaled lipid accumulation score” value under setting [2] was inactive: ≤ 0.

On to `CCOC(=O)[C@H](CCc1ccccc1)N[C@H]1CS[C@H](c2cccs2)CN(CC(=O)O)C1=O` [Temocapril HCl], for which the “scaled lipid accumulation score” value runs as follows: under setting [1], inactive: ≤ 0; under setting [2], inactive: 0.025.

For `O=C1NC(=O)/C(=C/c2ccc3nccnc3c2)S1`, the “scaled lipid accumulation score” value under setting [3] is inactive: ≤ -0.016, the “scaled lipid accumulation score” value under setting [4] was inactive: ≤ -0.016, the “scaled lipid accumulation score” value under setting [5] is inactive: ≤ -0.016 and the “scaled lipid accumulation score” value under setting [2] is inactive: ≤ -0.016.

As to `CCCCC(F)(F)[C@@]1(O)CC[C@H]2[C@@H](CC(=O)[C@@H]2CCCCCCC(=O)O)O1` [Lubiprostone], the “scaled lipid accumulation score” value is, setting by setting: under setting [1], inactive: ≤ 0; under setting [2], inactive: ≤ 0.

In the case of `Oc1ccc([C@@H]2CNCc3sccc32)cc1O`, the “scaled lipid accumulation score” value under setting [2] was inactive: ≤ 0.

For `Nc1c(S(=O)(=O)O)cc(Nc2cccc3ccccc23)c2c1C(=O)c1ccccc1C2=O`, the “scaled lipid accumulation score” value under setting [2] is inactive: 0.071.

As to `Cc1c[nH]c(-c2cnc(NCCNc3ccc(C#N)cn3)nc2-c2ccc(Cl)cc2Cl)n1.Cl`, under setting [2], the “scaled lipid accumulation score” value was active: 1.08.

Regarding `OC[C@H]1O[C@@H](Oc2cc(O)cc(/C=C/c3ccc(O)cc3)c2)[C@H](O)[C@@H](O)[C@@H]1O`, the “scaled lipid accumulation score” value under setting [2] is inactive: ≤ 0.

Regarding `Br.NC(=O)C(c1ccccc1)(c1ccccc1)[C@@H]1CCN(CCc2ccc3c(c2)CCO3)C1`, the “scaled lipid accumulation score” value under setting [2] was active: 0.88.

Regarding `COc1ccc(C2CNC(=O)C2)cc1OC1CCCC1` (stereo not drawn) [S- (+)-Rolipram], the “scaled lipid accumulation score” value reads like this: under setting [1], inactive: ≤ 0; under setting [2], inactive: ≤ 0.

For the compound `COc1ccc(C2CNC(=O)C2)cc1OC1CCCC1` (stereo unspecified), the “scaled lipid accumulation score” value under setting [2] is inactive: ≤ 0.

Turning to `COc1ccc(C2CNC(=O)C2)cc1OC1CCCC1` (stereo unspecified) [Rolipram], the “scaled lipid accumulation score” value was inactive: ≤ 0. Besides, the “scaled lipid accumulation score” value under setting [1] is inactive: ≤ 0. Besides, where the note is “library stock concentration: 7.3 mM”, the “scaled lipid accumulation score” value was inactive: 0.021. For the same compound, under setting [2], the “scaled lipid accumulation score” value is inactive: ≤ 0. For the same compound, the “scaled lipid accumulation score” value (library stock concentration: 18.2 mM) is inactive: ≤ -0.021.

For the compound `O=c1c(O)c(-c2ccc(O)cc2O)oc2cc(O)cc(O)c12` [Morin], the “scaled lipid accumulation score” value under setting [2] was inactive: 0.085 and inactive: ≤ 0.

As to `O=c1c(O)c(-c2ccc(O)cc2O)oc2cc(O)cc(O)c12` [Morin Hydrate], the “scaled lipid accumulation score” value by setting is: under setting [1], inactive: ≤ 0; under setting [2], inactive: ≤ 0.

For `CN(Cc1ccccc1)C(=O)[C@H](Cc1ccc2ccccc2c1)NC(=O)[C@@H]1CCCN1C(=O)Nc1ccccc1[N+](=O)[O-]`, the “scaled lipid accumulation score” value under setting [2] is inactive: 0.005.

For the compound `CC(=O)Nc1nc(C)c(-c2ccc(Cl)c(S(=O)(=O)NCCO)c2)s1`, the “scaled lipid accumulation score” value was inactive: ≤ -0.016 under setting [3]; inactive: ≤ -0.016 under setting [4]; inactive: ≤ -0.016 under setting [5]; inactive: ≤ 0 under setting [1]; inactive: ≤ 0 and inactive: ≤ -0.016 under setting [2].

As to `c1ccc2c3c([nH]c2c1)C1C2CCC(C4CCCNC42)N1CC3` (stereo unspecified) [Nitrarine dihydrochloride], the “scaled lipid accumulation score” value is inactive: ≤ 0.

In the case of `COc1ccccc1OCCNCC(O)COc1cccc2[nH]c3ccccc3c12` (stereo unspecified) [Carvedilol], the “scaled lipid accumulation score” value under setting [2] was active: 1.18.

Consider `CC(C)c1cccc(C(C)C)c1N1C(=O)c2ccc(O)cc2C1=O`, for which, under setting [2], the “scaled lipid accumulation score” value is inactive: 0.259.

`COc1ccc(C(=O)NCc2cccnc2)cc1C(=O)NCc1cccnc1` [Picotamide monohydrate]: the “scaled lipid accumulation score” value is inactive: 0.043.

With `COc1ccc(C(=O)NCc2cccnc2)cc1C(=O)NCc1cccnc1` [Picotamide], the “scaled lipid accumulation score” value (library stock concentration: 5.3 mM) was inactive: 0.017 and the “scaled lipid accumulation score” value under setting [2] is inactive: ≤ 0.

As for `Cc1cc([N+](=O)[O-])ccc1NS(=O)(=O)c1cc(Cl)ccc1Cl`, the “scaled lipid accumulation score” value is inactive: ≤ -0.009 under setting [1] and inactive: 0.147 under setting [2].

Turning to `COc1ccc(COc2ccc(Cc3cnc(N)nc3N)cc2OC)cc1` [cFMS Receptor Tyrosine Kinase Inhibitor], the “scaled lipid accumulation score” value under setting [1] is inactive: ≤ 0.

Regarding `COc1ccc(COc2ccc(Cc3cnc(N)nc3N)cc2OC)cc1`, the “scaled lipid accumulation score” value by setting is: under setting [3], inactive: ≤ 0; under setting [4], inactive: ≤ 0; under setting [5], inactive: 0.105; under setting [1], inactive: 0.252; under setting [2], inactive: 0.641 and inactive: ≤ 0.

In the case of `COCc1c(C(C)C)nc(C(C)C)c(/C=C/[C@@H](O)C[C@@H](O)CC(=O)O)c1-c1ccc(F)cc1`, under setting [2], the “scaled lipid accumulation score” value is inactive: 0.271.

`COCc1c(C(C)C)nc(C(C)C)c(/C=C/[C@@H](O)C[C@@H](O)CC(=O)O)c1-c1ccc(F)cc1` [Cerivastatin]: the “scaled lipid accumulation score” value (library stock concentration: 4.4 mM) was inactive: 0.228.
